In the supplement of paper PMC3334620:
Over roughly 33,000 sequences, “E-score (-0.5 to 0.5)” has its median near -0.012; the highest 2% begin near 0.27. Some of the results follow.

molecular target: T1, Vhr1 (UniProt P40522); assay: PBM E-score (8-mer binding enrichment) (E-score (-0.5 to 0.5)); higher = stronger / more preferred TF binding; most listed sequences are background and not binding sites; details: protein concentration: 200 nM; construct: GST-full length
T1 sequence: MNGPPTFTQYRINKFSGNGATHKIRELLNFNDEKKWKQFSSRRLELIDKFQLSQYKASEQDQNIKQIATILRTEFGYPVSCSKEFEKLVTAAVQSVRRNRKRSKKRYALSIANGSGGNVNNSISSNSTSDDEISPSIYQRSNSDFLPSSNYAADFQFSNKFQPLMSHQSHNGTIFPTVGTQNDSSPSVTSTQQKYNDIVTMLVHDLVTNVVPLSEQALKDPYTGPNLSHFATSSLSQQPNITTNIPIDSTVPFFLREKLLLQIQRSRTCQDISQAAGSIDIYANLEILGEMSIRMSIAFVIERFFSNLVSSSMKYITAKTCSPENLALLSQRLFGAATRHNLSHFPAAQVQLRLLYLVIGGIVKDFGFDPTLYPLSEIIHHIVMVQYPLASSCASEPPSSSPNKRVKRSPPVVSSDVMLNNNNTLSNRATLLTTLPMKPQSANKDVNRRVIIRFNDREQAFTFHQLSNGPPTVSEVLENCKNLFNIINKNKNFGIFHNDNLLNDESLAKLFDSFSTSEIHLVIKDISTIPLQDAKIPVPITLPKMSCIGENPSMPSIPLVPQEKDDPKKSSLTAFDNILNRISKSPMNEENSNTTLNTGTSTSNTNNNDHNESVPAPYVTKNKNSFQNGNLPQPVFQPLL
Outline: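 Universal all-10-mer Agilent arrays, fresh or stripped once, were converted to double-stranded form by primer extension. GST-tagged yeast transcription factors from PURExpress in vitro transcription/translation, full-length or DNA-binding domain only, were applied at about 100-200 nM and detected with fluorescent anti-GST. After masliner normalisation, the Universal PBM Analysis Suite scored each ungapped eight-base word together with its reverse complement by E-score.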

| Sequence | PBM E-score |
| --- | --- |
| AAGTCTTG | -0.0478 |
| CTTTACTC | 0.00789 |
| CTTACCAA | 0.00894 |
| CTATACCC | -0.00776 |
| TGTCACAA | 0.127 |
| ACTAACCT | 0.126 |
| CGGACGAG | -0.0824 |
| AATGAATA | 0.0163 |
| GTACCGCA | 0.183 |
| CCAACACG | -0.0359 |
| GCCTGTCC | -0.155 |
| GATGCTGA | 0.0169 |
| ACGGAAAG | -0.0509 |
| GACGCTAC | -0.0631 |
| GGCCGCGA | -0.138 |
| AGGAATTG | -0.00347 |
| ATCCCGGG | 0.0675 |
| CCGAGTAG | 0.1 |
| CAGCTGAA | -0.124 |
| TCTTCACA | 0.0437 |
| CGCACAAC | 0.0778 |
| ATCTCCGA | -0.0578 |

| Sequence | PBM E-score |
| --- | --- |
| ATGAAGCC | 0.0626 |
| GTGATATA | 0.0452 |
| CACCTAGC | -0.116 |
| ACTGAGTC | 0.454 |
| ACTCAAAC | 0.118 |
| GACTTACC | 0.125 |
| CTCAGCGC | -0.0842 |
| GGGGGGTA | -0.0399 |
| AACAATTG | 0.0192 |
| ACAACAGT | 0.183 |
| AACGGCAT | 0.0401 |
| CAGATGAC | 0.0552 |
| CTACTAGC | 0.189 |
| ACGACCCC | -0.103 |
| GGCCCCCA | -0.317 |
| CAGTCGAA | -0.104 |
| AAGTTATT | 0.0815 |
| ACGCTAAA | -0.0993 |
| GGCCATCA | -0.0669 |
| ACCTTCAT | -0.0375 |
| GATCTGAA | -0.0479 |
| GGCGAGAC | 0.115 |

| Sequence | PBM E-score |
| --- | --- |
| ATTTTGTC | -0.233 |
| CAGTACGC | 0.00816 |
| CAATGTGG | 0.0363 |
| ACTAGATA | 0.12 |
| ATAGTTTC | 0.0533 |
| ATAAAGTG | 0.0384 |
| CCTAGGAA | -0.00852 |
| GATGTCTA | 0.147 |
| AATGGAAT | -0.0109 |
| CCTTTACG | -0.0886 |
| CTGAAGCC | -0.0475 |
| ACTGAGGC | -0.046 |
| AATCTATC | 0.0296 |
| AACTGGAT | 0.0295 |
| GCACGGGA | -0.146 |
| GACCTTTA | -0.157 |
| CTGCCCGC | 0.186 |
| CGGTTATA | -0.0181 |
| GAAGCGTA | -0.0555 |
| CCTTTCCA | -0.105 |
| GCCTCTAA | -0.175 |
| CGATAACC | 0.0438 |

| Sequence | PBM E-score |
| --- | --- |
| GGTCAGAC | -0.0121 |
| ATCCATCA | 0.289 |
| CAGTGCCC | -0.0928 |
| AATACTCC | 0.035 |
| CGTCGGGC | -0.0484 |
| GAACTAAC | -0.0908 |
| CTTATCCC | -0.147 |
| GCAATGAC | 0.103 |
| CGGTAGTC | 0.191 |
| TCCCACAA | -0.0701 |
| CCATTAAG | -0.093 |
| AAAACATT | -0.119 |
| AACATCTT | -0.0649 |
| AGCATCGA | -0.0563 |
| TGTGCGAA | -0.15 |
| ATGCAAGA | -0.118 |
| GAAGTCTA | -0.177 |
| ACCAGGCG | 0.109 |
| AGGATAAT | 0.106 |
| GCTTTGGA | -0.0136 |
| AACATCGC | 0.0436 |
| CAACTCCA | -0.134 |

| Sequence | PBM E-score |
| --- | --- |
| AATTGGAT | 0.06 |
| AAACACGC | 0.0242 |
| CAAGTAGG | -0.109 |
| GACCTCTA | -0.144 |
| GACGATCA | -0.0372 |
| ACGTCGCG | 0.113 |
| GTCATAAA | 0.153 |
| AGAAATAT | -0.0638 |
| CGTCGAGA | 0.026 |
| AATAACTA | 0.0164 |
| GACGTGGC | -0.23 |
| CGGAGTAA | 0.0314 |
| ATTAAAAT | 0.0395 |
| CTTATTCA | -0.0484 |
| TAATAAGA | -0.159 |
| CGGGACTC | 0.204 |
| ATCCCTGG | -0.14 |
| GATTTCGA | -0.105 |
| CAGAACAG | 0.066 |
| AGAAAGAC | -0.0136 |
| GAAATGCC | -0.0678 |
| CGCATGCA | 0.144 |
